± gives the standard deviation of the averaged measurements. The full ranking holds about 33,000 sequences; the median of “E-score (dimensionless, -0.5 to 0.5)” is about -0.046, and the highest 2% start at about 0.36. Some of the results follow.
Each sequence was assayed on T1, SpTbr T-box DNA-binding domain (GST fusion) (assay: PBM E-score of 8-mer (E-score (dimensionless, -0.5 to 0.5)); Tbr is Tbrain of the sea star Patiria miniata (Pm) or the sea urchin Strongylocentrotus purpuratus (Sp); higher = stronger binding preference; most listed sequences are background and not binding sites). Details: the construct has about 5 more residues each side.
T1 sequence: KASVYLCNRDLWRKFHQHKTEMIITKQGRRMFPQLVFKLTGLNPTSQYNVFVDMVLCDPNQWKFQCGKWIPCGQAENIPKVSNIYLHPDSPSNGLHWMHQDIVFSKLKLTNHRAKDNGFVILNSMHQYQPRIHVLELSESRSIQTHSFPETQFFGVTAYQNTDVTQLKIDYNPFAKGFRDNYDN
Procedure, shortened: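 Universal Agilent oligonucleotide arrays, made double-stranded by primer extension, were incubated with 200 nM GST-fused Tbr T-box DNA-binding domain in PBS (pH 7.5). The protein was expressed in BL21 E. coli at 20 °C and purified by glutathione affinity chromatography. After scanning and quantification, the Universal PBM Analysis Suite assigned an enrichment E-score to each ungapped 8-mer, averaged over duplicate arrays.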

Sequence	PBM E-score of 8-mer
ACCAACCG	-0.0483 ± 0.074
GCCGGGCC	-0.177 ± 0.053
ACGAATAA	-0.0327 ± 0.0049
GGGCCTTA	-0.277 ± 0.06
AGGTCTCG	0.0437 ± 0.019
GTTTCGAA	-0.0969 ± 0.0012
AGCCCCCA	-0.171 ± 0.033
TCCTTGCA	-0.0806 ± 0.04
GTACGAAC	-0.0547 ± 0.0048
GCAGAACA	-0.218 ± 0.033
AGATATCC	-0.18 ± 0.048
AAATGATT	-0.135 ± 0.01
ATGTCAGA	-0.15 ± 0.011
CTACTGGA	-0.0141 ± 0.0028
TCCGTGAA	0.16 ± 0.012
ACGATCGC	0.324 ± 0.026
AGCGAACA	0.078 ± 0.037
AGGGACAA	-0.0486 ± 0.0021
GTAAAGGA	-0.15 ± 0.099
CACTTGAG	0.166 ± 0.013
ACCCCCTA	-0.098 ± 0.013
TAAGAGCA	-0.252 ± 0.049
GCGAATCA	0.205 ± 0.034
GCTTAGAC	-0.168 ± 0.039

Sequence	PBM E-score of 8-mer
CCAAGGCC	-0.186 ± 0.044
ATGAGTGG	0.00304 ± 0.024
ACGCGCAT	0.0574 ± 0.044
CAATAAAG	-0.15 ± 0.025
CCCCTGGA	-0.172 ± 0.033
CACGAACA	0.041 ± 0.016
ATGTTTGA	0.113 ± 0.12
TCCTGGCA	-0.0332 ± 0.014
CGCCGGGA	-0.0874 ± 0.038
GCGCTCCC	-0.1692 ± 0.00033
CATGTATA	-0.0466 ± 0.034
ATAACGTA	-0.0438 ± 0.038
ATGCTGTG	0.0749 ± 0.008
CAGATCGC	0.244 ± 0.017
AGCGGGAG	0.0455 ± 0.02
ATATCCCC	-0.0385 ± 0.045
GGGTCACC	-0.0559 ± 0.047
AGGGCTAC	-0.0643 ± 0.012
AGCAGCTC	-0.208 ± 0.067
ATGGGTCC	-0.253 ± 0.016
CTTGGTCA	-0.147 ± 0.026
GCACGCTA	0.0823 ± 0.071
CGCTCATC	-0.112 ± 0.059
GCGGAAGA	0.0197 ± 0.024

Sequence	PBM E-score of 8-mer
ATTAGGTG	0.307 ± 0.018
ACAGCTAA	0.104 ± 0.024
GAACAAGC	-0.0796 ± 0.06
ATCATTAG	-0.164 ± 0.1
GAAAAGCC	-0.0965 ± 0.068
ATCATACA	-0.0785 ± 0.086
ACCTGGTA	-0.0333 ± 0.028
TATGGGCA	-0.132 ± 0.0057
CGCGTGTC	0.28 ± 0.024
GCGGCCCC	-0.0769 ± 0.0012
TGTTTAAA	-0.168 ± 0.0056
AGGTCAGG	-0.0779 ± 0.035
ATCTGGAC	-0.116 ± 0.035
GGATTTCA	-0.166 ± 0.1
ATTTTAGC	0.196 ± 0.013
ACAGGGCA	-0.0596 ± 0.039
GTCTTATA	-0.0249 ± 0.1
GGTATTCA	-0.187 ± 0.0041
CACCTGTC	0.431 ± 0.019
AGCACTCC	-0.0167 ± 0.022
CAGATAAG	-0.0189 ± 0.046
CTGGAACA	-0.189 ± 0.061
GCGCTGCA	0.0743 ± 0.073
GTCCCGCA	-0.00105 ± 0.02

Sequence	PBM E-score of 8-mer
CGCGCTGC	0.0949 ± 0.0066
CCCGCTGC	0.00495 ± 0.0082
AGTTGATA	0.132 ± 0.059
AGTCACTC	0.0274 ± 0.044
GACTCACA	0.313 ± 0.038
CTGAACAG	-0.0231 ± 0.0095
ACGCGAAA	0.138 ± 0.018
CTCGATCA	0.0688 ± 0.04
ATCTAGTC	-0.148 ± 0.11
AAAACTGT	0.105 ± 0.033
AAACTTAC	-0.0103 ± 0.078
AGCTAAAC	-0.185 ± 0.028
CGTCCTCC	-0.263 ± 0.021
CGTTATGA	-0.0163 ± 0.01
AGAGTCGA	0.0119 ± 0.061
CTGACGAA	0.041 ± 0.026
ATGGGATC	-0.175 ± 0.018
CCCCACCA	-0.0379 ± 0.0039
GCACTGCA	-0.101 ± 0.021
GACGCTAA	0.15 ± 0.013
AGCAAACC	-0.13 ± 0.04
ACGGTCCC	-0.006 ± 0.023
